Among all 45,000 compounds or so, about 65 (0.1%) were called active. Calls come from the whole dose curve; as a rule, active = well fitted activation curve with a large enough effect; inconclusive = small, poorly fitted or top-dose-only effect; inactive = no such curve, though single readings can be large or run the other way. This is one part of the list.
target: Galactocerebrosidase (Homo sapiens) (UniProt P54803); experiment: A Novel Cell-Based Assay to Identify Small Molecules for B -Galactocerebrosidase; conditions: 145M-Twi-hGALC-G270D cells (Twitcher mouse brain line with human GALC G270D), HMU-beta-Gal fluorescence, 48 h; series mostly up to 57.5 µM; activation: at the top concentration; note: 0% is about no effect; nearly all actives have a fitted effect of over 65% in size
Excerpt: Lysosomal storage diseases (LSDs) are caused by genetic mutations in genes encoding proteins important for normal lysosomal function. Globoid cell leukodystrophy (GLD), mostly known as Krabbe disease, is a prototype of the neurological LSDs caused by deficiency of beta-galactocerebrosidase (GALC). In brain specimens of GLD patients, psychosine levels are substantially elevated. At elevated concentrations, psychosine becomes cytotoxic to neuronal cells, particularly to oligodendrocytes (OLG), neural cells responsible for myelin formation. Therefore, the biochemical disturbances in GLD are manifested by different degrees of brain demyelination resulting in a broad spectrum of neurological manifestations. Most of the FDA-approved therapies are based on enzyme replacement therapeutic (ERT) agents, which treat non-neurological symptoms of Gaucher disease, Fabry disease, few mucopolysaccharidoses and Pompe disease. Unfortunately, in GLD, a primarily neurological LSD, ERT agents, as large molecular weight molecules unable to cross the blood-brain barrier, which makes this an inefficacious therapeutic approach. In GLD, increasing the residual GALC activity just above the critical threshold (~10% of wild type enzymatic activity), the cytotoxic levels of psychosine will be reduced, avoiding the OLGs apoptosis and the subsequent demyelination process. This will translate in disease stabilization and amelioration of GLD patient symptoms.
A cell-based assay in 1,536-well plate format was developed to implement a quantitative high-throughput screening (qHTS) assay using GLD-disease relevant cells to identify small molecules that produce enhancements of the residual enzymatic activity levels of mutants GALC found and prevalent in GLD patients. Compounds that are active may therefore have some therapeutic application for GLD. After the treatment of live cells for a determined period, using a fluorescent GALC specific substrate, the mutant residual GALC activity is measured. This cell-based qTHS assay was used to screen part of the MLPCN library for small molecule able to increase the mutant GALC enzymatic activity. In this assay, increased fluorescent signal corresponds to enhanced levels of mutant GALC residual enzymatic activity. Activation is the desired outcome for this assay.
NIH Chemical Genomics Center [NCGC]
NIH Molecular Libraries Probe Centers Network [MLPCN]
Assay Submitter (PI): Gustavo Maegawa MD,PhD, University of Florida, Gainesville, FL
2)#Two cell lines were established for the assay: 145M-Twi-hGALC-G270D (brain-derived Twitcher cell line stably expressing human GALC-G270D) and 145M-Twi-hGALC-WT (same 145M-Twi stably expressing human GALC wild type). The Twitcher is the murine C57B/6 model for GLD with naturally occurring homozygous nonsense GALC mutation. The 145M-Twi cell line was established at Maegawa lab (Ribbens J et al 2014).
a.#Media: DMEM/F12 (1:1) with 10% fetal bovine-serum (FBS) with penicillin/streptomycin (PS-1X - 100 I.U./mL of penicillin+100 ug/mL of streptomycin).
b.#The 6-Hexadecanoylamino-4-methylumbelliferyl-b-D-galactoside (HMU-B-gal) substrate was prepared as per Wiederschain et al 1992. Using 20-mL borosilicate tubes, 2.20 mg of HMU-b-Gal was added in each tube to prepare substrate-film with a final air-nitrogen stream evaporation to remove all diluent solvents.
c.#The HMUb-Gal substrate buffer consists of 0.2 M Na2HPO4 (sodium phosphate dibasic)/ 0.1 M Citric Acid with the pH adjusted to 5.2 using HCl. Sodium Azide at 0.02% and Sodium Taurocholate (NaTC) at 1 mg/mL were added to this substrate buffer.
d.#The HMU-b-Gal stopping buffer consist of 0.5 M NaHCO3 (sodium bicarbonate) /0.5 M Na2CO3 (sodium carbonate). […] Triton X-100 at 0.25% was added.
4)#Preparation of HMU-b-Gal substrate tubes
Adding 18.6 mL of the HMUb-Gal substrate buffer to each 20-mL tube (2.20 mg of HMU-b-Gal) will reach a concentration of 0.2 mM. Vortex well the tube until the solution is fully homogenized (clear cloudy solution). […]

Sequence of UniProt P54803 (P54803 whole entry, looked up): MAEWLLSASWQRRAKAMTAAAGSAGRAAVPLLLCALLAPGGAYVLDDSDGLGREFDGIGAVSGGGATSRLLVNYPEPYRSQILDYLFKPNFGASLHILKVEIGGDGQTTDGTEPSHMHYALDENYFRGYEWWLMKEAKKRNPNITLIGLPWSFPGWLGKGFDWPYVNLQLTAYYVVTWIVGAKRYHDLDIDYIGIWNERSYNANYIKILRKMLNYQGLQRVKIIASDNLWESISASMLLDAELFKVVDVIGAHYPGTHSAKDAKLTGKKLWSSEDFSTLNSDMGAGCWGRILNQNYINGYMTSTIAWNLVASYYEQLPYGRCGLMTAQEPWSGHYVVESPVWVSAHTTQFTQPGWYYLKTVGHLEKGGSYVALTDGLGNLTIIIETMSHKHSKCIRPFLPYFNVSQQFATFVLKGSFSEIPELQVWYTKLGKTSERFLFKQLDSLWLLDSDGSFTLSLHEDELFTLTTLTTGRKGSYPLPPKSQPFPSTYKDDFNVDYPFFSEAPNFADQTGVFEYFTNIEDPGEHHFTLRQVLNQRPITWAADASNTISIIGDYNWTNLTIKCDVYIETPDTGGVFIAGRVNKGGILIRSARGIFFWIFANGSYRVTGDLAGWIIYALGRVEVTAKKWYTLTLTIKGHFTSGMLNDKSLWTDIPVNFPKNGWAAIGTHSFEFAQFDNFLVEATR

activation, inactive:
Cc1ccccc1C(=O)N1CCCCC1CCN1CCCCC1 (centres undefined) -8.91%
COc1ccc(OC)c(NC(=O)CSC2=Nc3ccccc3C3=NC(CCC(=O)NC4CCCCC4)C(=O)N23)c1 (centres undefined) -13.7%
COC(=O)c1c(NC(=O)COc2ccc(Cl)cc2C)sc2c1CCCCC2 -2.42%
COc1ccc(C)cc1NC(=O)c1oc2ccc(S(=O)(=O)N3CCOCC3)cc2c1C -6.91%
CCc1nn(CC(=O)NCCCN2CCN(C)CC2)c(=O)c2cc3occc3n12 -10.8%
CSc1ncc(C(=O)N2CCN(c3ccc(Cl)cc3)CC2)c(C)n1 -12.4%
COc1ccc(C(=O)c2c(N)c(-c3nc(-c4ccccc4)cs3)c3ccccn23)cc1 0.815%
COc1ccc2nc3sc(C(=O)N4CCN(c5ccc(F)cc5)CC4)cc3cc2c1 -10.7%
Cc1ccc(C)c(N2CCN(S(=O)(=O)c3ccc4c(c3)CCCN4C(=O)C3CCC3)CC2)c1 -15.6%
CCc1ccc(C(=O)CSc2nc(-c3ccccc3)nc3c2CCCC3)cc1 -11.8%
Cc1ccc(CNC(=O)CN2C(=O)CSc3ccc(S(=O)(=O)N4CCCC4)cc32)cc1 -11.6%
CN(C)c1ccc(CNC(=O)CN2C(=O)CCn3nc(-c4cn(C)c5ccccc45)cc32)cc1 -19.9%
COc1cccc(-c2nc3c(c(SCc4ccccc4Cl)n2)Cc2c(CO)cnc(C)c2O3)c1 -14.3%
COc1ccc(CNS(=O)(=O)c2ccc(F)c(C(=O)Nc3c(C)cc(C)cc3C)c2)cc1 -6.51%
CCOC(=O)c1cc(-c2ccc(OC)cc2)n(CCC(=O)Nc2cccc(C(C)=O)c2)c1C -17.2%
Cc1cc2oc(C(=O)Nc3sc4c(c3C(=O)NCc3ccccc3)CCCC4)cc(=O)c2cc1C -5.61%
CCC(CC)C(=O)NCc1nc2cccnc2n1Cc1ccc(F)cc1 -22.6%
CCCN(CCC)C(=O)c1cn(CC)c2ccc(S(=O)(=O)N3CCCCC3)cc2c1=O -18.4%
COc1cccc(CNC(=O)C2CCN(C(=O)c3sccc3-n3cccc3)CC2)c1 -2.01%
O=C(NCCCO)C(=O)Nc1c2c(nn1-c1ccccc1)CSC2 -9.62%
CCCN(CCC)C(=O)C1CCCN(c2ncnc3onc(-c4ccc(F)cc4)c23)C1 (centres undefined) -4.73%
Cc1ccc(CSCCC(=O)N2CCN(c3cc(C)ccc3C)CC2)cc1 -8.86%
COCCCNC(=O)c1sc2nc(C)c(C(=O)Nc3ccc(C)cc3C)c(-c3ccc(Br)cc3)c2c1N -23.1%
CCC(C)NC(=O)CSc1nnc(-c2ccc(C)cc2)c(-c2ccc(C)cc2)n1 (centres undefined) -3.49%
COc1ccc(-c2noc(CN(C(=O)Cc3ccc(C)cc3)C(C)C)n2)cc1 -33.2%
COc1cc(C)ccc1OCCSc1nc2ccc(NC(=O)c3cccs3)cc2s1 -24.7%
Cc1ccc(C(=O)Nc2ccccc2C(=O)OCc2cc(=O)n3nc(C4CC4)sc3n2)cc1 3.78%
O=C(CN1C(=O)C2(SCC(=O)N2c2ccccc2)c2ccccc21)NCCc1ccccc1 (centres undefined) 5.16%
Cc1cn2c(=O)cc(COC(=O)c3ccccc3F)nc2s1 -10.9%
CCc1ccc(NC(=O)CSc2nc3c(sc4ccccc43)c(=O)n2CCN(CC)CC)cc1 -12.5%
Cc1ccc(CNS(=O)(=O)c2cc3c(cc2C)N(C)CCO3)cc1 -15.5%
CCN(CC)CCCNC(=O)C(=O)Nc1ccc2nc3n(c(=O)c2c1)CCCCC3 -12.8%
COc1ccc(/C=C/C(=O)Nc2ccc(Cl)cc2Cl)cc1 -13.7%
Cc1ccc(Cn2ccnc2SCC(=O)Nc2ccc3c(c2)OCCO3)cc1 -15.4%
Cc1ccc(CNC(=O)c2cccc(NC(=O)N3CCSc4ncccc43)c2)cc1 -3.02%
Cc1ccc(S(=O)(=O)C(CNC(=O)COc2ccc(Cl)cc2)c2ccco2)cc1 (centres undefined) -11.9%
CC(=O)Nc1cccc(NC(=O)CSc2nccn2Cc2ccco2)c1 -15%
Cc1cc(C)cc(NC(=O)CCCc2nnc3n(CC(C)C)c(=O)c4sccc4n23)c1 -4.91%
Cc1ccc(NC(=O)Cn2cc(C(=O)c3ccco3)c3ccccc32)c(C)c1 -10.6%
Cc1ccccc1CNC(=O)c1cc2cccc3c2n1CC(C)S3 (centres undefined) -19%
CCOc1cc(C2CC(=O)Nc3c2c(=O)nc(SCc2cccc(Cl)c2)n3C)ccc1O (centres undefined) -7.33%
O=C(Nc1cccc(Cl)c1)c1cc(S(=O)(=O)N2CCCc3ccccc32)ccc1F -11.4%
CC(=O)Nc1ccc(NC(=O)c2nc(SCc3ccccc3C)ncc2Cl)cc1 -9.64%
COc1cccc(OCc2cc(=O)n3cc(C)sc3n2)c1 -2.34%
CCOc1ccc(OCC)c(-n2cnnn2)c1 -7.16%
Fc1ccccc1N1CCN(c2ncnc3onc(-c4cccc(Cl)c4)c23)CC1 0.288%
Cc1c(NC(=O)Nc2ccc(Cl)c(C(F)(F)F)c2)c(=O)n(-c2ccccc2)n1C -4.04%
COc1ccc(-c2cc3c(=O)n(CC(=O)Nc4cc(C)ccc4C)ccn3n2)cc1 -12.5%
COc1ccc(-n2c(SCC(=O)NC3CCCCC3)nc3c([nH]c4ccccc43)c2=O)cc1 -9.53%
Cc1ccc(Cl)cc1-n1ncc2c(NCCC3=CCCCC3)ncnc21 2.21%
NS(=O)(=O)c1ccc(NC(=O)CN2CCN(c3ccc(F)cc3)CC2)cc1 -7.86%
Cn1c(=O)c2c(-c3ccccc3Br)n(Cc3ccccc3)cc2n(C)c1=O -12.5%
Cc1cccn2c(=O)cc(COc3ccc(NC(=O)C(C)Oc4ccccc4)cc3)nc12 (centres undefined) -14.1%
Cc1cccc(Cc2c(C)nc3nc(SCc4cccc(F)c4)nn3c2C)c1 -4.24%
O=S(=O)(c1ccccc1)c1nnn2c1nc(NC1CCCCCC1)c1sccc12 -14.8%
O=C(CN(c1cccc(C(F)(F)F)c1)S(=O)(=O)c1ccccc1)Nc1cccc(Cl)c1 -23.3%
Cc1ccc(-c2nc(S(=O)(=O)c3ccc(C)cc3)c(N3CCCCC3)o2)cc1 -10.1%
COc1ccccc1CNC(=O)C(=O)NCC(c1cccnc1)N1CCN(c2ccc(F)cc2)CC1 (centres undefined) -11.6%
Cc1ccc(Cn2ccnc2SCC(=O)NC2CCCC2)cc1 -21.5%
COc1cc(S(=O)(=O)n2ccnc2C(C)C)ccc1Br -15.7%
CCOc1ccc(CCNC(=O)CN2C(=O)COc3ccc(S(=O)(=O)N(CC)CC)cc32)cc1 -2.79%
COc1cccc(N2CC(NC(=O)C3CCCC3)CC2=O)c1 (centres undefined) -21.5%
COc1ccc(N2CCN(C(=O)c3c4c(nc5ccccc35)C(=O)N(C3CCCCC3)C4)CC2)cc1 -17.5%
C=CCOc1ccccc1OCC(O)CNC(C)C (centres undefined) -13.7%
COc1ccc2c(CNCc3ccco3)c(C(=O)O)n(Cc3ccccc3)c2c1 7.93%
COc1ccccc1NC(=O)COC(=O)CC(C)(C)CC1=NS(=O)(=O)c2ccccc2N1 -7.73%
COc1ccc(Cl)cc1NC(=O)Cn1nnc(C(=O)NCc2cccs2)c1N -11.5%
COc1ccc(-c2nnc(SCC(=O)c3ccc(NC(C)=O)cc3)o2)cc1OC -5.74%
COc1ccc(-c2nc3ccccc3o2)cc1NC(=O)c1ccc(OCC(C)C)cc1 -2.57%
COC(=O)c1c(-c2cccs2)csc1NC(=O)c1ccc(C(C)(C)C)cc1 -15.9%
CSc1ccc(C2c3[nH]c4ccccc4c3CCN2C(=O)CCC2CCCC2)cc1 (centres undefined) 10.5%
CCc1ccc(-n2c(=O)c3ccc(C(=O)NCCc4ccccc4)cc3n(Cc3ccccc3C#N)c2=O)cc1 -10.8%
O=C(Nc1ccc2nc(SCC(=O)N3CCCC3)sc2c1)c1cccc(F)c1 -10.5%
O=C(NCCCN1CCCCC1)c1ccc2c(c1)sc1nc(-c3ccc(F)cc3)cn12 -14.2%
NC(=O)C1CCN(C(=O)c2ccc3c(c2)N(Cc2cccc(Cl)c2)C(=O)c2ccccc2S3(=O)=O)CC1 -16.4%
CCOC(=O)c1c(-c2ccc(C)cc2C)csc1NC(=O)c1ccccc1Cl -13.2%
CCOc1ccc(NS(=O)(=O)c2ccc3[nH]cc(C(=O)N(C)C4CCCCC4)c(=O)c3c2)cc1 -12.5%
Cc1ccc2c(=O)cc(C(=O)Nc3c(C(=O)c4ccccc4)oc4ccccc34)oc2c1 0.735%
CC(CNC(=O)c1ccc(Nc2nc3ccccc3n3nnnc23)cc1)c1ccccc1 (centres undefined) -24.5%
NC(=O)Cn1c(=O)n(CCCCCC(=O)NCc2ccccc2Cl)c(=O)c2sccc21 -4.9%
COCCNC(=O)Cn1cc2c(n1)-c1c(oc(C(=O)N3CCCC3)c1C)CC2 -3.73%
COC(=O)c1c(-c2cccs2)csc1NC(=O)COc1ccccc1 -15.1%
O=C(O)c1ccc[n+]([O-])c1 -12.2%
CCC(=O)N1CCN(c2nc3c(C)cccc3s2)CC1 -3.17%
CCCCOC(=O)/C(C#N)=C/c1ccc(-c2ccc(Br)cc2)o1 -9.28%
CCCn1c2ccccc2c2cnn(CC(=O)NC(C)CC)c(=O)c21 (centres undefined) -8.89%
COc1ccc(OC(=O)CSc2nnc(-c3ccc(F)cc3)o2)cc1 -7.57%
Cc1c(N)c(=O)n(-c2ccccc2)n1C -11.7%
Cc1ccc(NC(=O)CCCN2C(=O)COc3ccc(C)cc32)c(C)c1 0.762%
CCc1cccc(C)c1NC(=O)c1nc2ccccc2nc1N1CCCCC1 -14.8%
COc1ccc2c(Sc3ccccc3)c(C(=O)N3CCC(C)CC3)[nH]c2c1 -12.8%
Cc1ccc(N2C(=O)CSC23C(=O)N(CC(=O)Nc2ccc(C)cc2C)c2ccccc23)cc1 (centres undefined) -14.7%
Cc1ccc([N+](=O)[O-])c(Oc2ncnc3c2oc2ccccc23)c1 -9.98%
CC(C)Oc1ccc(CNC(=O)c2cnc3sc(N4CCCCCC4)nn3c2=O)cc1 -8.71%
Cc1ccc(NC(=O)c2cc(-c3cccs3)nc3ccccc23)c(C)c1 -10.9%
O=C(NCc1ccc(F)cc1Cl)c1ccc(CSCc2ccccc2Cl)o1 -17.1%
CC(C)CCn1c(=O)c2sccc2n2c(CCCC(=O)Nc3ccc(F)c(Cl)c3)nnc12 -24.6%
Cc1ccc(N2CCN(C(=O)Nc3cn(CC(C)C)c(=O)c4ccccc34)CC2)c(C)c1 -22%
CCCN(CCC)CCNC(=O)Cn1cnc2sc(C)c(S(=O)(=O)N3CCN(c4ccccc4OC)CC3)c2c1=O -27.2%
